# Results from ChEMBL document CHEMBL4888484, “Replenishing the malaria drug discovery pipeline: Screening and hit evaluation of the MMV Hit Generation Library 1 (HGL1) against asexual blood stage Plasmodium falciparum ,using a nano luciferase reporter read-out” (2022).
# In all, about 150,000 compounds went through this assay and about 540 (0.36%) showed an effect of 50% or more. This is one part of the list.
# Test system: Plasmodium falciparum
# Assay: Primary screen in NF54 nanoGlo assay, in single point, at 2uM, 72h; a lower Z score goes with more inhibition
# Type: functional, Erythrocyte
# Conditions: timepoint 72 hour
SMILES,% Inhibition,Z score
Cc1nn(C)c(C)c1NC(=O)NCc1csc2c1CCCC2,-14%,2.25
CCC(=O)N1CCN(C(=O)c2cccc(C)n2)C1,11%,-1.34
Cc1ccc(C(=O)N2CC(N3C(=O)CCC3=O)C2)cc1F,-10%,1.82
Cc1ccccc1C1c2[nH]c3ccccc3c2C[C@H]2C(=O)N(C3CCCC3)CC(=O)N12 (stereo partly drawn),1%,-0.07
F[C@@H]1CCN(Cc2noc3c2COCC3)C1,-20%,2.01
CCOc1cc(N2CCN(C)CC2)ccc1NC(=O)c1cscn1,-30%,6
CCCCn1nc(NC(=O)c2cc(C3CC3)[nH]n2)cc1C,30%,-0.58
O=C(Nc1cccc(Cl)c1)N1CC(Cc2nc(-c3cccnc3)no2)C1,-8%,1.13
Cc1cnc(CCNC(=O)[C@H]2CCc3nc(C)nn3C2)c(C)c1,9%,-1.65
CCCc1cnc(C)nc1N1CCC[C@H](c2nccn2CC2CC2)C1,-20%,2.61
Cc1ccc2cc(CN(Cc3noc(C)n3)C(C)C)c(=O)[nH]c2c1,-7%,1.05
NC(=O)Cn1cnc(-c2noc(C(F)=CC3CCCCC3)n2)n1,-6%,0.78
CCn1c(=O)c2sccc2n(CC(=O)NCc2ccc(F)cc2)c1=O,5%,-0.76
COc1cccc(CC(=O)N2C[C@@H](Oc3ccccc3)C[C@H]2C(=O)NC2CC2)c1,-7%,0.88
CCC(C)N(C)CCNC1C2CCOC2C12CCCC2 (stereo not drawn),-7%,1.18
Cc1cccc2c1nc1n2[C@@H](CNS(=O)(=O)c2ccccc2)COC1,-9%,1.15
c1cc(CN[C@H]2COC[C@H]2n2ccnn2)c2cc[nH]c2c1,-17%,2.04
Nc1nnc(CCn2cnc(-c3ccccc3)c2[C@H]2CCOC2)s1,-2%,0.28
COCCNC(=O)C[C@H](CCc1ccccc1)c1c[nH]c2ccccc12,1%,-0.09
O=C(c1cnc(CN2CCCC2)s1)N1CCC(c2cc(O)ncn2)CC1,-13%,2.36
Cc1ccc(S(=O)(=O)NC[C@H](O)c2ccc(-c3ccsc3)cc2)s1,14%,-1.92

SMILES,% Inhibition,Z score
CCn1ccc(C(=O)N(C)[C@@H](C)c2ccco2)cc1=O,-8%,0.78
CCN(C)C[C@H](C)c1nc(-c2c[nH]c3ccccc23)n[nH]1,-8%,0.98
O=C(C1CCCN(c2nccs2)C1)N1CCCC(n2cccn2)C1 (stereo not drawn),-15%,1.53
CC(NC(C)c1nc2ccccc2n1C(C)C)C(=O)Nc1ccc(F)c(F)c1 (stereo not drawn),-9%,0.83
Clc1ccc(NCc2cnc3ncccn23)nc1,-11%,2.2
CC1CCCCC12NCCN=C2NC1CCCCCC1 (stereo not drawn),13%,-1.69
O=C(O)[C@@H]1CN(S(=O)(=O)c2cc3ccccc3o2)c2ccccc21,35%,-5.1
CCCn1ncc(NC(=O)Cn2cc(C)c(-c3ccccc3F)n2)n1,4%,-0.58
C=CCc1cc(CN(C)CC2(C)COC2)ccc1OC(C)C,-3%,0.58
CC(=O)N1CCC(C(=O)Nc2ccsc2-c2nc(-c3cccc(C)c3)no2)CC1,-16%,1.57
CN1CCC(Nc2ncnc3sccc23)CC1,2%,-0.35
CC1(C)CN(C(=O)C2COc3ccccc32)CC[S+]1[O-] (stereo not drawn),-10%,1.37
CCc1ccc(COc2cc(-n3c(=O)cc(C(F)(F)F)n(C)c3=O)ccc2OC)c(O[C@@H](C)C(=O)OC)c1,-50%,5.85
COc1ccc(OC)c(CNC(=O)c2nc(Cn3nc(-c4ccc(C)cc4)ccc3=O)no2)c1,-7%,0.89
CN(C)S(=O)(=O)N1CCN(c2cccc(OCc3ccccc3Cl)c2)CC1,0%,0
Cc1cccc(NC(=O)N2CCN(CCn3cnc4cccnc43)CC2)c1C,-12%,1.59
CC#CCN1C(=O)N[C@@](CCc2ccccc2)(C2CCN(C(=O)c3n[nH]c4c3CCC4)CC2)C1=O,-5%,0.96
CO[C@H]1CN(c2cccc(F)c2)C12CCN(C(=O)c1ccc(C)s1)CC2,-13%,1.67
Cc1cc(F)ccc1-n1ccc(C(=O)N2CCCNC(=O)[C@@H]2C)n1,-12%,1.36
O=C1CO[C@H]2CN(Cc3ccccc3)C[C@H]2N1Cc1cccc(C(F)(F)F)c1,-4%,0.59
O=C(NCCc1c[nH]c2cc(F)c(Cl)cc12)[C@H]1CCCC(F)(F)C1,1%,-0.2

SMILES,% Inhibition,Z score
CC1(C)CN(C(=O)Cn2cc(NC(=O)c3occ4c3CCOC4)cn2)CCO1,5%,-0.82
Cn1c(CN2CCCCC2)nnc1C1CCN(c2ncc(F)cn2)CC1,2%,-0.28
CCOC(=O)[C@H](C)n1cnc2c1c(=O)n(CC1CC1)c(=O)n2-c1cccc(OC)c1,-9%,1.34
Cc1ccc2oc(CN(C(=O)c3ccc(Cl)c(Cl)c3)C3CCCCC3)nc2c1,-5%,0.89
Cc1cc(C#N)nc(N[C@@H](C)c2nc[nH]n2)n1,-3%,0.52
Cc1ccccc1C(C)NCCCOC1CCOC1 (stereo not drawn),-22%,2.18
CCOC(=O)Nc1ccc(NCc2cnc(C)s2)cc1C#N,2%,-0.33
Cc1ccccc1C(=O)N1CCc2nc(N3CCOCC3)nc(N3CCN(C)CC3)c2C1,-3%,0.46
Cn1ccnc1[C@@H]1CCCN1S(=O)(=O)c1c2c(nn1C)CCCC2,36%,-1.42
CC[C@H]1CCCCN1Cc1ccc(CNC(=O)c2c(C)oc3ncn(CC(C)C)c(=O)c23)o1,-4%,0.71
Cn1c(=O)c2c(ncn2CC(=O)N2CCCn3nc(-c4cccc(F)c4)cc3C2)n(C)c1=O,-14%,1.22
CCc1nc(-c2csc(S(=O)(=O)N3CCC[C@H](C(=O)Nc4ccc(C)cc4Cl)C3)c2)no1,-1%,0.1
Cc1ccc(CN2CC[C@H](CNC(=O)c3cc(N)ccn3)C2)cc1C,1%,-0.15
CO[C@@H](CNC(=O)N1CCc2c(F)cc(F)cc21)c1ccccc1,-1%,0.08
CCCn1c(C)cnc1C1CN(S(=O)(=O)c2cc(Cl)ccc2Cl)C1,30%,-4.02
N[C@@H](CC(=O)O)c1ccc(C(F)(F)F)cc1,0%,-0.07
Cc1ccnc2nc(C(=O)N(CCc3cccc(F)c3)C3CC3)nn12,-5%,0.53
COc1ccccc1CCn1c(C)cc(=O)c(C(=O)N2CCN(c3cccc(Cl)c3)CC2)c1C,-8%,1.11
C=CCCC(=O)N1CCCCC1C1CCCN(C(=O)C(F)(F)F)C1 (stereo not drawn),0%,0.01
CCc1onc(C)c1NC(=O)N(C)C1CCC1,-17%,2.53
N#CC1COCCN1C(=O)C1CC2CCC1O2 (stereo not drawn),-4%,0.62

SMILES,% Inhibition,Z score
CN1CCN(C[C@@H]2CN(C(=O)c3cc4c(s3)CCCC4)C[C@@H]2CO)CC1,-14%,1.48
O=C(N[C@@H]1C[C@H]1c1cccc(Cl)c1)c1cc[nH]n1,-11%,1.76
Fc1c(F)c(F)c2c(c(-c3ccccc3)nn2-c2ccccc2)c1F,-10%,1.85
COc1ccc(CNC(=O)c2ccc3[nH]c4c(c3c2)CN(C(C)=O)CC4)c(OC)c1,17%,-2.56
CC[C@H]1c2cccn2CCN1C(=O)c1conc1C(F)(F)F,0%,-0.04
CC[C@@H](C#N)Oc1cc(CN)ccc1OC,-6%,0.97
CCN1C(=O)[C@@H]2CC3(CCN(Cc4ccc(F)cc4F)CC3)CN2C1=O,2%,-0.25
Cc1oc2ncn(CCC(=O)N3CCCCCC3)c(=O)c2c1C,-16%,1.9
Cc1c(NCc2nc(CC(C)C)no2)cccc1N1CCOC1=O,2%,-0.2
COc1ccccc1-c1ccc(C(=O)NC2CCOCC2)nc1,-10%,1.97
COCCN(C)Cc1nc(C2(c3ccccc3)CC2)n[nH]1,-9%,1.51
Cc1ccc2[nH]cc(CCC(=O)N3CCOC[C@H]3C3CCC3)c2c1,-8%,1.57
O=C([C@H]1CCCN(c2nc3ccccc3[nH]2)C1)N1CCN(c2ccccc2)CC1,-8%,1.06
Cc1ccc2c(c1)C(=O)N(CC(=O)Nc1cnccc1C)C2=O,-8%,1.34
O=C1OCCN1Cc1nc(-c2ccco2)nn1Cc1ccc2c(c1)OCO2,-4%,0.7
CC(O)CC1COCCN1C(=O)NCCC1CCCC1 (stereo not drawn),8%,-0.82
CN(CC1(C)CCOCC1)C(=O)CCC1CCCC1,0%,0.07
CC(C)(C)C1CNC(=O)C1C(=O)NCc1ccccn1 (stereo not drawn),-3%,0.52
c1ccc(CN2CCN(Cc3cc(C4CC4)n[nH]3)CC2)cc1,-2%,0.34
CCN(C[C@H]1COc2ccccc2O1)C(=O)c1cc2n(n1)CCO2,-3%,0.45
CC1OCCC1C(=O)NC(C)(C)C1CCN(C(=O)C2CCOC2C)CC1 (stereo not drawn),4%,-0.83
